Data on four compounds can be found in patent publication US12583836B2 (Anaxis Pharma Pty Ltd, priority 2020, dated 2026).

In one assay the target is T1, RIP1 (Homo sapiens, UniProt Q13546).
T1 construct: purchased DiscoverX (KINOMEscan service); host or cells: E. coli BL21-derived (T7 phage) or HEK293
T1 sequence (Q13546 1-671): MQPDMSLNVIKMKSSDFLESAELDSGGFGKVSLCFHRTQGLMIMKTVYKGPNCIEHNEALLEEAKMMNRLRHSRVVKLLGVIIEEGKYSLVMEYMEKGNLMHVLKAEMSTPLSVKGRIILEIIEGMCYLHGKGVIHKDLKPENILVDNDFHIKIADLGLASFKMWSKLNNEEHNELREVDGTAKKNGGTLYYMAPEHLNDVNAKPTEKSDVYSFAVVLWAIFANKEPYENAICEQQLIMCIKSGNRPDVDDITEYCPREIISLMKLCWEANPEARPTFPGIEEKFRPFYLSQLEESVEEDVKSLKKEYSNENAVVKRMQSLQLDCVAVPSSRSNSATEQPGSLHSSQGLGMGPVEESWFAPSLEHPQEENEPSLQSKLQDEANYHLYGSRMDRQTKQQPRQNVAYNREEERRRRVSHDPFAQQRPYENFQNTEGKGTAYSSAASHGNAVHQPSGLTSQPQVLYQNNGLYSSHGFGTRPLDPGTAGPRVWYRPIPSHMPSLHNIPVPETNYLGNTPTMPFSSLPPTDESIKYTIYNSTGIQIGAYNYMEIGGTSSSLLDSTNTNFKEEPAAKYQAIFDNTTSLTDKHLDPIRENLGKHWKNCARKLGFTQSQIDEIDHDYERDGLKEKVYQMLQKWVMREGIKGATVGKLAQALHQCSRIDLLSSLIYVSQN
Briefly: KINOMEscan binding assay, RIP1. The conditions noted are these: equilibrium dissociation constant, class symbols.

The target of the next assay is T2, RIP3 (Homo sapiens, UniProt Q9Y572).
T2 construct: purchased DiscoverX (KINOMEscan service); host or cells: E. coli BL21-derived (T7 phage) or HEK293
The assay is described as follows: KINOMEscan binding assay, RIP3. The settings on record: equilibrium dissociation constant, class symbols. The source says:
The Hill Slope was set to −1.

Assay [1] deals with U937 human histiocytic leukemia cell line. The assay is described as follows: Inhibition of TSQ induced necroptosis, 384 well plate format (CellTitre-Glo). The conditions noted are these: Homo sapiens, U-937; U937 cells, TSQ cocktail (TNF, Smac mimetic, Q-VD-OPh), CelltiterGlo; read-out: Inhibition of TSQ-induced necroptosis (IC50 cell-based assay). The method, then:
[…] ASSAY: Screening compounds for inhibition of TSQ induced necroptosis, 384 well plate format.
Cell Line ID: U937 human histiocytic leukemia cell line.
Cell Concentration (cells/well): Final cell density is 20000 cells per well.
Cell growth medium: HT-RPMI medium+7.4% Fetal Bovine Serum (FBS). Cells are cultured in Corning 150 cm^2 tissue culture flasks with vented caps at 37° C./5% CO2.
Incubation: Plates were incubated at 37° C./5% CO2 in a humidified incubator for 48 hours following addition of compounds and death stimuli (TSQ cocktail).
Compound concentration: 36 μM starting concentration, 1:3 dilution, 10 point
DMSO final concentration (% v/v): 0.3%.
Compounds in TSQ cocktail (T: TNF; S: Smac mimetic; Q: Q-VD-OPh) and their final concentrations:
hTNF-Fc (100 ng/ml)—produced by standard procedures as shown in Bossen et al., J Biol Chem, 2006, 281(20), 13964-13971.
Compound A (500 nM)—Smac mimetic, Tetralogic and SYNthesis med chem
Q-VD-OPh (10 μM)—MP Biomedicals
The cellular assay was carried out according to the following steps: • 1. Each well was prepared by sequential addition of: • a. […] Read luminescence readout on a plate reader. […]
Percent viability was calculated for each compound according to equation (2):
[formula] • wherein • RawData is the readout of any cell containing a compound of the invention • TA is the total activity provided by the luminescence readout from DMSO only wells (columns 2 and 24)=100% viability • NSA is the non-specific activity provided by DMSO+TSQ wells (columns 1 and 23)=0% viability […]
Assay involving the TSQ cocktail (T: TNF; S: Smac mimetic; Q: Q-VD-OPh): TSQ treatment ensures that cells specifically undergo necroptotic cell death. […] The compounds' activity (solution in DMSO) tested in this TSQ-induced assay was evaluated by determining the number of viable cells in culture by measuring the amount of ATP present as measured by CelltiterGlo.
Background: ATP-based viability assays read luminescence as a measure of living cells.

In a further assay the test system is U937 cells. Briefly: Counter screen: cell viability without the TSQ cocktail (CelltiterGlo). On the set-up: species or system human. The settings on record: Homo sapiens, U-937, cell viability by CelltiterGlo, read-out: Off-target effect (IC50 cell-based assay). Here is the method:
Counter screen: In parallel, all compounds were tested for their ability to affect cell viability. The same U937 cells were treated with compound in DMSO without the TSQ cocktail. This counter screen enabled evaluation of off-target effects. In this case, cell viability was measured by CelltiterGlo.
On the technique in general: The purpose of a counterscreen is to sort out artefacts and off-target activity.

T2 sequence (Q9Y572 whole entry): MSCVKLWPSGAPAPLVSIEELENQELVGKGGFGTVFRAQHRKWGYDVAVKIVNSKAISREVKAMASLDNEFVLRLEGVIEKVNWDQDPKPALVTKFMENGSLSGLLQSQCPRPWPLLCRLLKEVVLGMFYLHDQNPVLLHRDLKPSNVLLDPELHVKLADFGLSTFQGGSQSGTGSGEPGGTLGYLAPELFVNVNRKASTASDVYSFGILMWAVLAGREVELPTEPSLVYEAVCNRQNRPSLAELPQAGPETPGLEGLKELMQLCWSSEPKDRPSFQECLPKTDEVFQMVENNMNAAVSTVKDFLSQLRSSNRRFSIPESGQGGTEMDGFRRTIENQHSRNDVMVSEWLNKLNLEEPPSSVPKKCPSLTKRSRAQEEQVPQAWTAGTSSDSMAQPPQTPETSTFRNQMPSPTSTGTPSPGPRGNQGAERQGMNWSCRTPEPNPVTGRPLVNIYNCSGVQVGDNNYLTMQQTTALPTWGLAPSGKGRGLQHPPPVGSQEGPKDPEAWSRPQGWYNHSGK

On to `CCS(=O)(=O)Nc1ccc(-c2n[nH]c(Nc3cccc(C(F)(F)F)n3)c2C(N)=O)cc1OCc1cccc(Cl)c1` [Compound 3, 3-(3-((3-chlorobenzyl)oxy)-4-(ethylsulfonamido)phenyl)-5-((6-(trifluoromethyl)pyridin-2-yl)amino)-1H-pyrazole-4-carboxamide], for which the Kd at RIP1 and on RIP3 was more than 30000 nM in each case.
On to `C[C@H](Oc1cc(-c2n[nH]c(Nc3cc(C(C)(C)F)on3)c2C(N)=O)ccc1NS(=O)(=O)C(F)F)c1ccc(F)cc1` [Compound 297], for which the IC50 (usually the point on the concentration scale where inhibition reaches its midpoint) in assay [1] is 10 to 1000 nM; with U937 cells, more than 30000 nM.
In the same order, the values of `C[C@H](Oc1cc(-c2n[nH]c(Nc3cc(C45CC6CC(CC(C6)C4)C5)on3)c2C(N)=O)ccc1NS(=O)(=O)C(F)F)c1ccc(F)cc1` [Compound 304, (S)-5-((5-(adamantan-1-yl)isoxazol-3-yl)amino)-3-(4-((difluoromethyl)sulfonamido)-3-(1-(4-fluorophenyl)ethoxy)phenyl)-1H-pyrazole-4-carboxamide] are 10 to 1000 nM and 1000 to 30000 nM.
In the same order, the values of `Cc1nccc(Nc2[nH]nc(-c3ccc(NS(=O)(=O)C(F)F)c(O[C@@H](C)c4ccc(F)cc4)c3)c2C(N)=O)n1` [Compound 309, (S)-3-(4-((difluoromethyl)sulfonamido)-3-(1-(4-fluorophenyl)ethoxy)phenyl)-5-((2-methylpyrimidin-4-yl)amino)-1H-pyrazole-4-carboxamide] are 10 to 1000 nM and more than 30000 nM.
